A short description of the assay: ELISA, binding of anticalins to immobilized BSA-fluorescein conjugate. As to conditions: periplasmatic protein extract, absorption at 405 nm, unconjugated BSA as control. On the technique in general: In an ELISA, binding on a coated surface is turned into a signal by an enzyme label.

This is an account of results in US8536307B2, “Anticalins” (Pieris AG, priority 1997, dated 2013).

B1: Bbp: Recombinant bilin-binding protein from Pieris brassicae (modified, encoded on pBBP21/pBBP22), produced as a control (protein)
chain: DVYHDGACPEVKPVDNFDWSQYHGKWWEVAKYPNSVEKYGKCGWAEYTPEGKSVKVSNYHVIHGKEYFIEGTAYPVGDSKIGKIYHSLTYGGVTKENVFNVLSTDNKNYIIGYYCKYDEDKKGHQDFVWVLSRSMVLTGEAKTAVENYLIGSPVVDSQKLVYSDFSEAACKVNNLAEAKVLANRELDKYGVSDYYKNLINNAKTVEGVKALIDEILAALP
modifications: left off: small tags and cut ends
On to B1, for which the “binding signal in ELISA” value was “practically no binding”.
